B1: TNFα dAb Fc variant D1H (Fc fusion, name in Kabat numbering)
chain: HIQMTQSPSSLSASVGDRVTITCRASQAIDSYLHWYQQKPGKAPKLLIYSASNLETGVPSRFSGSGSGTDFTLTISSLLPEDFATYYCQQVVWRPFTFGQGTKVEIKRV[human IgG1 Fc with changes left out]
B2: TNFα dAb Fc variant D1K (Fc fusion, name in Kabat numbering)
chain: KIQMTQSPSSLSASVGDRVTITCRASQAIDSYLHWYQQKPGKAPKLLIYSASNLETGVPSRFSGSGSGTDFTLTISSLLPEDFATYYCQQVVWRPFTFGQGTKVEIKRV[human IgG1 Fc with changes left out]
B3: TNFα dAb Fc variant I2A (Fc fusion, name in Kabat numbering)
chain: DAQMTQSPSSLSASVGDRVTITCRASQAIDSYLHWYQQKPGKAPKLLIYSASNLETGVPSRFSGSGSGTDFTLTISSLLPEDFATYYCQQVVWRPFTFGQGTKVEIKRV[human IgG1 Fc with changes left out]
B4: TNFα dAb Fc variant I2S (Fc fusion, name in Kabat numbering)
chain: DSQMTQSPSSLSASVGDRVTITCRASQAIDSYLHWYQQKPGKAPKLLIYSASNLETGVPSRFSGSGSGTDFTLTISSLLPEDFATYYCQQVVWRPFTFGQGTKVEIKRV[human IgG1 Fc with changes left out]
B5: TNFα dAb Fc variant I2L (Fc fusion, name in Kabat numbering)
chain: DLQMTQSPSSLSASVGDRVTITCRASQAIDSYLHWYQQKPGKAPKLLIYSASNLETGVPSRFSGSGSGTDFTLTISSLLPEDFATYYCQQVVWRPFTFGQGTKVEIKRV[human IgG1 Fc with changes left out]
B6: TNFα dAb Fc variant I2Y (Fc fusion, name in Kabat numbering)
chain: DYQMTQSPSSLSASVGDRVTITCRASQAIDSYLHWYQQKPGKAPKLLIYSASNLETGVPSRFSGSGSGTDFTLTISSLLPEDFATYYCQQVVWRPFTFGQGTKVEIKRV[human IgG1 Fc with changes left out]
B7: TNFα dAb Fc variant K103S (Fc fusion, name in Kabat numbering)
chain: DIQMTQSPSSLSASVGDRVTITCRASQAIDSYLHWYQQKPGKAPKLLIYSASNLETGVPSRFSGSGSGTDFTLTISSLLPEDFATYYCQQVVWRPFTFGQGTSVEIKRV[human IgG1 Fc with changes left out]
B8: TNFα dAb Fc variant I2H (Fc fusion, name in Kabat numbering)
chain: DHQMTQSPSSLSASVGDRVTITCRASQAIDSYLHWYQQKPGKAPKLLIYSASNLETGVPSRFSGSGSGTDFTLTISSLLPEDFATYYCQQVVWRPFTFGQGTKVEIKRV[human IgG1 Fc with changes left out]
B9: TNFα dAb Fc variant I2P (Fc fusion, name in Kabat numbering)
chain: DPQMTQSPSSLSASVGDRVTITCRASQAIDSYLHWYQQKPGKAPKLLIYSASNLETGVPSRFSGSGSGTDFTLTISSLLPEDFATYYCQQVVWRPFTFGQGTKVEIKRV[human IgG1 Fc with changes left out]
B10: TNFα dAb Fc variant I2K (Fc fusion, name in Kabat numbering)
chain: DKQMTQSPSSLSASVGDRVTITCRASQAIDSYLHWYQQKPGKAPKLLIYSASNLETGVPSRFSGSGSGTDFTLTISSLLPEDFATYYCQQVVWRPFTFGQGTKVEIKRV[human IgG1 Fc with changes left out]
B11: TNFα dAb Fc variant Q3A (Fc fusion, name in Kabat numbering)
chain: DIAMTQSPSSLSASVGDRVTITCRASQAIDSYLHWYQQKPGKAPKLLIYSASNLETGVPSRFSGSGSGTDFTLTISSLLPEDFATYYCQQVVWRPFTFGQGTKVEIKRV[human IgG1 Fc with changes left out]
B12: TNFα dAb Fc variant Q3S (Fc fusion, name in Kabat numbering)
chain: DISMTQSPSSLSASVGDRVTITCRASQAIDSYLHWYQQKPGKAPKLLIYSASNLETGVPSRFSGSGSGTDFTLTISSLLPEDFATYYCQQVVWRPFTFGQGTKVEIKRV[human IgG1 Fc with changes left out]
B13: TNFα dAb Fc variant Y86S (Fc fusion, name in Kabat numbering)
chain: DIQMTQSPSSLSASVGDRVTITCRASQAIDSYLHWYQQKPGKAPKLLIYSASNLETGVPSRFSGSGSGTDFTLTISSLLPEDFATSYCQQVVWRPFTFGQGTKVEIKRV[human IgG1 Fc with changes left out]
B14: TNFα dAb Fc variant Y87A (Fc fusion, name in Kabat numbering)
chain: DIQMTQSPSSLSASVGDRVTITCRASQAIDSYLHWYQQKPGKAPKLLIYSASNLETGVPSRFSGSGSGTDFTLTISSLLPEDFATYACQQVVWRPFTFGQGTKVEIKRV[human IgG1 Fc with changes left out]
B15: TNFα dAb Fc variant Y87D (Fc fusion, name in Kabat numbering)
chain: DIQMTQSPSSLSASVGDRVTITCRASQAIDSYLHWYQQKPGKAPKLLIYSASNLETGVPSRFSGSGSGTDFTLTISSLLPEDFATYDCQQVVWRPFTFGQGTKVEIKRV[human IgG1 Fc with changes left out]
B16: TNFα dAb Fc variant Y87H (Fc fusion, name in Kabat numbering)
chain: DIQMTQSPSSLSASVGDRVTITCRASQAIDSYLHWYQQKPGKAPKLLIYSASNLETGVPSRFSGSGSGTDFTLTISSLLPEDFATYHCQQVVWRPFTFGQGTKVEIKRV[human IgG1 Fc with changes left out]
B17: TNFα dAb Fc variant Y87K (Fc fusion, name in Kabat numbering)
chain: DIQMTQSPSSLSASVGDRVTITCRASQAIDSYLHWYQQKPGKAPKLLIYSASNLETGVPSRFSGSGSGTDFTLTISSLLPEDFATYKCQQVVWRPFTFGQGTKVEIKRV[human IgG1 Fc with changes left out]
B18: TNFα dAb Fc variant Y87L (Fc fusion, name in Kabat numbering)
chain: DIQMTQSPSSLSASVGDRVTITCRASQAIDSYLHWYQQKPGKAPKLLIYSASNLETGVPSRFSGSGSGTDFTLTISSLLPEDFATYLCQQVVWRPFTFGQGTKVEIKRV[human IgG1 Fc with changes left out]
B19: TNFα dAb Fc variant Y87P (Fc fusion, name in Kabat numbering)
chain: DIQMTQSPSSLSASVGDRVTITCRASQAIDSYLHWYQQKPGKAPKLLIYSASNLETGVPSRFSGSGSGTDFTLTISSLLPEDFATYPCQQVVWRPFTFGQGTKVEIKRV[human IgG1 Fc with changes left out]
B20: TNFα dAb Fc variant Y87Q (Fc fusion, name in Kabat numbering)
chain: DIQMTQSPSSLSASVGDRVTITCRASQAIDSYLHWYQQKPGKAPKLLIYSASNLETGVPSRFSGSGSGTDFTLTISSLLPEDFATYQCQQVVWRPFTFGQGTKVEIKRV[human IgG1 Fc with changes left out]
B21: TNFα dAb Fc variant Y87S (Fc fusion, name in Kabat numbering)
chain: DIQMTQSPSSLSASVGDRVTITCRASQAIDSYLHWYQQKPGKAPKLLIYSASNLETGVPSRFSGSGSGTDFTLTISSLLPEDFATYSCQQVVWRPFTFGQGTKVEIKRV[human IgG1 Fc with changes left out]

Molecular target: recombinant human TNFα (human, UniProt P01375 partial chain)
Test: cell-based or functional assay

Row | Binder | Standardized EC50, L929 neutralization assay (5-point)
1 | B1 | 1.13 µg/mL
2 | B2 | 0.833 µg/mL
3 | B3 | 1.23 µg/mL
4 | B4 | 2.79 µg/mL
5 | B5 | 0.593 µg/mL
6 | B6 | 3.61 µg/mL
7 | B7 | 1.89 µg/mL
8 | B8 | 80.7 µg/mL
9 | B9 | 0.725 µg/mL
10 | B10 | 2.79 µg/mL
11 | B11 | 2.32 µg/mL
12 | B12 | 2.58 µg/mL

Molecular target: T1, recombinant human TNFα (CytoLab) (human, UniProt P01375 partial chain)
T1 construct: coated on the ELISA plate at 1 µg/ml; also called Tumour necrosis factor alpha
Test: ELISA on coated human TNFα

Row | Binder | A450 (AU)
13 | B13 | 0.18 AU
14 | B14 | 0.219 AU
15 | B15 | 0.208 AU
16 | B16 | 0.222 AU
17 | B17 | 0.283 AU
18 | B18 | 0.717 AU
19 | B19 | 0.176 AU
20 | B20 | 0.192 AU
21 | B21 | 0.201 AU

From patent US20110319597A1 (CAPHALON AUSTRALIA, published 2011)
